Results reported in patent US20220372098A1 (Johns Hopkins, published 2022).

T1: biotinylated human IL-2Rβ extracellular domain with C-terminal biotin acceptor peptide (human, UniProt P14784 27-240, biotinylated with BirA ligase on the C-terminal biotin acceptor peptide)
T1 construct: extracellular domain; Immobilized on streptavidin tips in BLI; also called hIL-2Rβ; immobilized human IL-2Rβ
T1 sequence: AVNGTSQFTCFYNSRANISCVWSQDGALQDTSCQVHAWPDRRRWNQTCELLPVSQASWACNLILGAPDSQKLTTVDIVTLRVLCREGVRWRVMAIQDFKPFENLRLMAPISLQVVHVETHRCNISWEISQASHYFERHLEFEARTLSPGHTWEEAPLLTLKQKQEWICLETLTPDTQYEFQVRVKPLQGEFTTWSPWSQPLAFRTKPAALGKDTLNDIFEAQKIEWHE

T2: biotinylated human IL-2Rα extracellular domain with C-terminal biotin acceptor peptide (human, UniProt P01589 22-240, biotinylated with BirA ligase on the C-terminal biotin acceptor peptide)
T2 construct: extracellular domain; Immobilized on streptavidin tips in BLI; also called hIL-2Rα; immobilized human IL-2Rα
T2 sequence: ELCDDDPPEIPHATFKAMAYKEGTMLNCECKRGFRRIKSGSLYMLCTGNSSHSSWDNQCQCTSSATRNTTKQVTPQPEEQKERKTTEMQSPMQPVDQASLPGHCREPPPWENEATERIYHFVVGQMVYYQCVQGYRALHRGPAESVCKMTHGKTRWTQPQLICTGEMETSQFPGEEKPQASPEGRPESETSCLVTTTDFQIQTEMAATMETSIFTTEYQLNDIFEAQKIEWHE


Assays:
[1] = molecular target: T1, biotinylated human IL-2Rβ extracellular …; test: bio-layer interferometry (Octet), equilibrium titration on immobilized biotinylated human IL-2Rβ
Excerpt: (§1) Less than 5 signal units (nm) of receptor was immobilized to minimize mass transfer effects. […] Data was visualized and processed using the Octet® Data Analysis software version 7.1 (Molecular Devices).

[2] = molecular target: T2, biotinylated human IL-2Rα extracellular …; test: bio-layer interferometry (Octet), equilibrium titration on immobilized biotinylated human IL-2Rα
Excerpt: as §1

Row | EC50 (read off the curve) [1] | binding result [2] | Binder
1 | ~100 nM |  | human IL-2 cytokine, soluble, with C-terminal hexahistidine tag (ligand, Made in HEK 293F cells; also called hIL-2; untethered hIL-2) not shown
2 | ~20 nM | no binding (tested: about 1.6e-6 M) | 602 immunocytokine: hIL-2 fused by a (G4S)2 linker to the N-terminus of the light chain of the full-length 602 antibody (other) heavy: EVQLQESGPGLVAPSQSLSITCTVSGFSLTNYDISWIRQPPGKGLEWLGVIWTGGGTNYNSGFMSRLSITKDNSKSQVFLKMNSLQTDDTAIYYCVRQGRTPYWGQGTLVTVSAAKTTAPSVYPLAPVCGDTTGSSVTLGCLVKGYFPEPVTLTWNSGSLSSGVHTFPAVLQSDLYTLSSSVTVTSSTWPSQSITCNVAHPASSTKVDKKIEPRGPTIKPCPPCKCPAPNLLGGPSVFIFPPKIKDVLMISLSPIVTCVVVDVSEDDPDVQISWFVNNVEVHTAQTQTHREDYNSTLRVVSALPIQHQDWMSGKEFKCKVNNKDLPAPIERTISKPKGSVRAPQVYVLPPPEEEMTKKQVTLTCMVTDFMPEDIYVEWTNNGKTELNYKNTEPVLDSDGSYFMYSKLRVEKKNWVERNSYSCSVVHEGLHNHHTTKSFSRTPGK light: [about 150 residues not spelt out]GGGGSGGGGSDIQVTQSPSSLSVSLGDRVTITCKASKDIYNRLAWYQQKPGNAPRLLISGATSLETGVPSRFSGSGSGKDYTLTITSLQTEDVATYYCQQFWGTPYTFGGGTKLEIKRADAAPTVSIFPPSSEQLTSGGASVVCFLNNFYPKDINVKWKIDGSERQNGVLNSWTDQDSKDSTYSMSSTLTLTKDEYERHNSYTCEATHKTSTSPIVKSFNRNEC
